Reference: the supplement of paper PMC7826260
Some of the results follow. Cleavage of a single-stranded DNA pool by Rep nickase domains was read by sequencing (1 h at 37 °C, 3 µM enzyme); the outer parts of the 90-letter strands are left off. Values are log2 of uncut reads against the no-enzyme pool; more negative means more cut, near 0 not cut, and no call is made. Counts are relative to all reads; where an enzyme cuts many sequences, the uncut ones exceed 0.

Tested on: T1, Rep nickase domain of banana bunchy top virus
T1 sequence (protein, residues 1-94, tag omitted): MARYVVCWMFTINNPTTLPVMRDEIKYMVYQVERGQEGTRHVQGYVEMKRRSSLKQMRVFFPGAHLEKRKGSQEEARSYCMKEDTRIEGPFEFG
Test: uncleaved DNA left, log2 of reads against the no-enzyme library (log2 ratio); higher = less cleavage (more negative = more Rep cleavage of the k-mer); sequences stand for … in CTCGTCCG…ACCGGAGA
Experimental: (§1)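 A pool of 90-nt single-stranded DNAs with seven random bases just before the constant AC of the nick site (name = the seven bases) was cut by 3 µM recombinant His6-SUMO-tagged Rep nickase domain (300 nM DNA, 50 mM HEPES pH 8.0, 50 mM NaCl, 1 mM MnCl2, 1 h, 37 °C, three replicates). Uncut DNA was amplified and sequenced.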

Row | Sequence | uncleaved DNA left (log2)
1 | GTAACTT | 0.0924
2 | CTACTTC | -0.0775
3 | GCAATAA | 0.116
4 | TATATAC | 0.0551
5 | GGTCTGG | 0.0686
6 | TCAACTT | -0.0102
7 | TGGTAGA | 0.00882
8 | CGCAATG | 0.096
9 | AACGATA | -0.0168
10 | ACTACGA | -0.161
11 | GGGAACC | 0.045
12 | GTGATGA | 0.0741
13 | TAAGAGT | -0.118
14 | TCCAGAC | 0.0893
15 | CGTACAG | 0.0941
16 | GAAGTTA | 0.035
17 | CAAATCA | 0.0554
18 | ATCATCG | 0.00541
19 | CACTGTG | -0.0709
20 | TAATCGA | 0.128

Row | Sequence | uncleaved DNA left (log2)
21 | AACCCGG | -0.0702
22 | CGTGGGC | -0.0516
23 | ACCTACC | 0.0325
24 | CTGTTAT | -0.179
25 | AGAGAGC | 0.0353
26 | CGTGCAC | -0.126
27 | TGGCCGC | -0.00494
28 | GACCCGT | -0.0599
29 | AAATAAG | -0.00968
30 | CTGGACC | -0.0187
31 | ATTCCGA | -0.12
32 | TATCTAG | -0.0413
33 | GCAGCTA | 0.00963
34 | TTCGCGA | -0.129
35 | TTGCAGC | -0.125
36 | AAAGCCC | -0.0162
37 | CCGCCCT | -0.143
38 | GTTTGGC | 0.0136
39 | TTTTAAA | 0.161
40 | AAGCGGG | 0.0576

Tested on: T2, Rep nickase domain of cabbage leaf curl virus
T2 sequence (protein, residues 1-116, tag omitted): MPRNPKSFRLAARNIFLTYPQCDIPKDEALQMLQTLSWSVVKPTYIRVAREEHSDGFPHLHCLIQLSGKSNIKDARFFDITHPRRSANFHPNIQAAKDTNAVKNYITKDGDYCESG
Test: as above
Experimental: as §1

Row | Sequence | uncleaved DNA left (log2)
41 | GTAACTT | 0.198
42 | CTACTTC | -0.0443
43 | GCAATAA | 0.0339
44 | TATATAC | 0.134
45 | GGTCTGG | 0.495
46 | TCAACTT | -0.338
47 | TGGTAGA | 0.282
48 | CGCAATG | 0.333
49 | AACGATA | -0.0987
50 | ACTACGA | -0.157
51 | GGGAACC | 0.69
52 | GTGATGA | 0.367
53 | TAAGAGT | -2.16
54 | TCCAGAC | 0.271
55 | CGTACAG | -0.186
56 | GAAGTTA | 0.274
57 | CAAATCA | -0.029
58 | ATCATCG | -0.786
59 | CACTGTG | -0.777
60 | TAATCGA | -2.83

Row | Sequence | uncleaved DNA left (log2)
61 | AACCCGG | 0.299
62 | CGTGGGC | 0.229
63 | ACCTACC | -0.279
64 | CTGTTAT | -0.0709
65 | AGAGAGC | -0.077
66 | CGTGCAC | -0.19
67 | TGGCCGC | 0.00855
68 | GACCCGT | 0.531
69 | AAATAAG | -0.808
70 | CTGGACC | 0.156
71 | ATTCCGA | 0.323
72 | TATCTAG | -0.779
73 | GCAGCTA | 0.0539
74 | TTCGCGA | -0.754
75 | TTGCAGC | -0.926
76 | AAAGCCC | -0.0206
77 | CCGCCCT | -0.0737
78 | GTTTGGC | 0.151
79 | TTTTAAA | 0.354
80 | AAGCGGG | -0.0918

Tested on: T3, Rep nickase domain of chickpea chlorotic dwarf virus
T3 sequence (protein, residues 1-124, tag omitted): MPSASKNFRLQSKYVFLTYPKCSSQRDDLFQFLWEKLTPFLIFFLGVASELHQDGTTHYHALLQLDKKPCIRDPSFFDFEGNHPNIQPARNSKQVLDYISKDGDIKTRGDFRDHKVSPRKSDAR
Test: as above
Experimental: as §1

Row | Sequence | uncleaved DNA left (log2)
81 | GTAACTT | 0.61
82 | CTACTTC | -1.78
83 | GCAATAA | 0.385
84 | TATATAC | -0.565
85 | GGTCTGG | 0.939
86 | TCAACTT | -2.6
87 | TGGTAGA | 0.248
88 | CGCAATG | 1.49
89 | AACGATA | -1.68
90 | ACTACGA | -0.496
91 | GGGAACC | 1.83
92 | GTGATGA | 1.01
93 | TAAGAGT | -2.12
94 | TCCAGAC | 0.484
95 | CGTACAG | -0.397
96 | GAAGTTA | -0.158
97 | CAAATCA | -1.75
98 | ATCATCG | 0.198
99 | CACTGTG | -0.0197
100 | TAATCGA | -2.3

Row | Sequence | uncleaved DNA left (log2)
101 | AACCCGG | 1.07
102 | CGTGGGC | 0.587
103 | ACCTACC | -1.94
104 | CTGTTAT | -0.805
105 | AGAGAGC | 0.000221
106 | CGTGCAC | 0.0877
107 | TGGCCGC | -0.285
108 | GACCCGT | 0.836
109 | AAATAAG | 0.234
110 | CTGGACC | 0.721
111 | ATTCCGA | 0.673
112 | TATCTAG | -0.81
113 | GCAGCTA | -0.311
114 | TTCGCGA | -0.175
115 | TTGCAGC | -0.437
116 | AAAGCCC | -0.244
117 | CCGCCCT | -1.64
118 | GTTTGGC | 0.682
119 | TTTTAAA | 0.305
120 | AAGCGGG | 0.223

Tested on: T4, Rep nickase domain of faba bean necrotic yellows virus
T4 sequence (protein, residues 1-98, tag omitted): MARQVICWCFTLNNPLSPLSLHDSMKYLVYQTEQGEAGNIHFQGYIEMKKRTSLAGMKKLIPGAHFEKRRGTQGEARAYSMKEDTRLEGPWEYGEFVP
Test: as above
Experimental: as §1

Row | Sequence | uncleaved DNA left (log2)
121 | GTAACTT | -0.0796
122 | CTACTTC | -0.0648
123 | GCAATAA | 0.0346
124 | TATATAC | 0.0125
125 | GGTCTGG | 0.00179
126 | TCAACTT | 0.0362
127 | TGGTAGA | 0.0836
128 | CGCAATG | -0.00365
129 | AACGATA | 0.00359
130 | ACTACGA | -0.0309
131 | GGGAACC | -0.148
132 | GTGATGA | 0.0244
133 | TAAGAGT | 0.0343
134 | TCCAGAC | 0.0444
135 | CGTACAG | -0.0186
136 | GAAGTTA | 0.213
137 | CAAATCA | -0.00678
138 | ATCATCG | 0.0307
139 | CACTGTG | 0.11
140 | TAATCGA | 0.143

Row | Sequence | uncleaved DNA left (log2)
141 | AACCCGG | -0.119
142 | CGTGGGC | -0.00348
143 | ACCTACC | 0.0641
144 | CTGTTAT | -0.00271
145 | AGAGAGC | 0.0681
146 | CGTGCAC | -0.22
147 | TGGCCGC | -0.0444
148 | GACCCGT | -0.067
149 | AAATAAG | 0.208
150 | CTGGACC | -0.0714
151 | ATTCCGA | 0.0333
152 | TATCTAG | 0.0691
153 | GCAGCTA | -0.052
154 | TTCGCGA | 0.0487
155 | TTGCAGC | -0.0572
156 | AAAGCCC | 0.00911
157 | CCGCCCT | -0.0635
158 | GTTTGGC | -0.112
159 | TTTTAAA | 0.203
160 | AAGCGGG | -0.0892

Tested on: T5, Rep nickase domain of maize striate mosaic virus
T5 sequence (protein, residues 1-117, tag omitted): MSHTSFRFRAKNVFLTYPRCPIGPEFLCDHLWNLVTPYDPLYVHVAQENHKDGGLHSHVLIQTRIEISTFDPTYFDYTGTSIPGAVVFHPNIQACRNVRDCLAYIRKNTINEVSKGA
Test: as above
Experimental: as §1

Row | Sequence | uncleaved DNA left (log2)
161 | GTAACTT | 1.75
162 | CTACTTC | -0.732
163 | GCAATAA | -0.0706
164 | TATATAC | -0.374
165 | GGTCTGG | 1.12
166 | TCAACTT | -0.295
167 | TGGTAGA | -0.0594
168 | CGCAATG | 1.44
169 | AACGATA | 0.145
170 | ACTACGA | -1.01
171 | GGGAACC | 2.09
172 | GTGATGA | 1.72
173 | TAAGAGT | -0.0707
174 | TCCAGAC | 0.124
175 | CGTACAG | -0.338
176 | GAAGTTA | 0.833
177 | CAAATCA | -0.338
178 | ATCATCG | -0.697
179 | CACTGTG | -0.875
180 | TAATCGA | -1.82

Row | Sequence | uncleaved DNA left (log2)
181 | AACCCGG | 0.908
182 | CGTGGGC | 0.206
183 | ACCTACC | -0.682
184 | CTGTTAT | -0.358
185 | AGAGAGC | -0.624
186 | CGTGCAC | -0.409
187 | TGGCCGC | -0.182
188 | GACCCGT | 0.63
189 | AAATAAG | -0.678
190 | CTGGACC | 0.7
191 | ATTCCGA | 0.134
192 | TATCTAG | -1.16
193 | GCAGCTA | -0.18
194 | TTCGCGA | -0.86
195 | TTGCAGC | -1.14
196 | AAAGCCC | -0.448
197 | CCGCCCT | -0.234
198 | GTTTGGC | 0.471
199 | TTTTAAA | 0.403
200 | AAGCGGG | -0.219
